Measured values published in the supplement of paper PMC9446081.
Among all 39,000 compounds or so, about 220 (0.56%) showed activity. The list shows a part of the results.

Tested on: Escherichia coli K-12 BW25113
Test: relative growth (OD600 normalised to plate interquartile mean) (fraction); higher = less growth inhibition, active = 0.2 or less
Conditions: 50 µM; LB; incubation time: overnight (16-24 h)
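Also: static incubation at 37 °C against the wild-type strain, values averaged over two biological replicates.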

SMILES	relative growth
COc1ccc(NC(=O)N(C)C[C@@H]2Oc3ncc(C#CC(C)C)cc3C(=O)N([C@H](C)CO)C[C@@H]2C)cc1	inactive: 0.984
C[C@H]1CN([C@@H](C)CO)C(=O)Cc2cc(NS(C)(=O)=O)ccc2O[C@H]1CN(C)S(=O)(=O)c1ccccc1	inactive: 0.967
COc1ccc(S(=O)(=O)N(C)C[C@H]2Oc3ccc(NC(=O)Nc4c(C)noc4C)cc3CC(=O)N([C@H](C)CO)C[C@@H]2C)cc1	inactive: 0.991
CCCCC(=O)OC1CCC2C3CCc4cc(O)ccc4C3CCC12C (stereo not drawn)	inactive: 0.873
C[C@H]1CCCCO[C@H](CN(C)C(=O)c2ccccc2)[C@@H](C)CN([C@@H](C)CO)C(=O)c2cc(NC(=O)Nc3ccccc3)ccc2O1	inactive: 1.03
CC(C)C#Cc1ccc2c(c1)O[C@H](CN(C)C(=O)Cc1ccccn1)[C@H](C)CN([C@@H](C)CO)S2(=O)=O	inactive: 0.986
CC(C)NC(=O)N(C)C[C@H]1Oc2ccc(NC(=O)Cc3ccccc3)cc2C(=O)N([C@@H](C)CO)C[C@@H]1C	inactive: 1.01
C[C@H](CO)N1C[C@H](C)[C@@H](CN(C)C(=O)Nc2ccc(C(F)(F)F)cc2)Oc2ccc(NC(=O)Cc3cn(C)c4ccccc34)cc2C1=O	inactive: 0.978
C[C@H](CO)N1C[C@H](C)[C@H](CN(C)CC2CCCCC2)OCCCC[C@H](C)Oc2ccc(NS(=O)(=O)c3ccc(Cl)cc3)cc2C1=O	inactive: 0.973
C[C@@H]1CCCCO[C@H](CN(C)C(=O)C2CCCCC2)[C@H](C)CN([C@@H](C)CO)C(=O)c2cc(NC(=O)Nc3ccc(C(F)(F)F)cc3)ccc2O1	inactive: 1.02
C[C@@H]1CN([C@@H](C)CO)C(=O)c2cc(NC(=O)Nc3ccc4c(c3)OCO4)ccc2O[C@@H](C)CCCCO[C@@H]1CN(C)Cc1ccc(C(F)(F)F)cc1	inactive: 1.05
CCOc1ccc(Cc2cc(C3OC(CO)C(O)C(O)C3O)ccc2Cl)cc1 (stereo not drawn)	inactive: 0.906
CO[C@@H]1CN(C)C(=O)c2cc(NS(C)(=O)=O)ccc2OC[C@@H](C)N(C(=O)C2CCOCC2)C[C@H]1C	inactive: 1
Cc1noc(C)c1S(=O)(=O)Nc1ccc2c(c1)C(=O)N([C@@H](C)CO)C[C@@H](C)[C@@H](CN(C)Cc1ccc(C(F)(F)F)cc1)OCCCC[C@@H](C)O2	inactive: 1.05
C[C@H]1CCCCO[C@H](CN(C)Cc2ccc(C(F)(F)F)cc2)[C@@H](C)CN([C@@H](C)CO)C(=O)c2cc(NC(=O)Nc3ccc(F)cc3)ccc2O1	inactive: 1.03
CO[C@@H]1CN(C)C(=O)c2cc(NS(=O)(=O)CC(F)(F)F)ccc2OC[C@@H](C)N(Cc2cccnc2)C[C@@H]1C	inactive: 0.995
C[C@@H]1CCCCO[C@H](CN(C)CC2CCCCC2)[C@H](C)CN([C@H](C)CO)C(=O)c2cc(NC(=O)NC3CCCCC3)ccc2O1	inactive: 0.99
C[C@@H]1CCCCO[C@@H](CN(C)S(=O)(=O)c2ccccc2)[C@@H](C)CN([C@@H](C)CO)C(=O)c2cc(NC(=O)Nc3ccc(C(F)(F)F)cc3)ccc2O1	inactive: 0.973
COC(=O)/C=c1\sc2n(c1=O)CCN=2	inactive: 1.02

SMILES	relative growth
COc1ccc(CN2CCN(C(c3ccc(F)cc3)c3ccc(F)cc3)CC2)c(OC)c1OC.Cl	inactive: 1
COc1ccc(NC(=O)N(C)C[C@H]2OCc3cn(nn3)CCCC(=O)N([C@@H](C)CO)C[C@H]2C)c(OC)c1	inactive: 1.01
COc1ccccc1NC(=O)N(C)C[C@@H]1Oc2cc(Br)ccc2S(=O)(=O)N([C@@H](C)CO)C[C@@H]1C	inactive: 1
C[C@H](CO)N1C[C@H](C)[C@H](CN(C)C(=O)Cc2ccccc2)Oc2cc(C#CC3(O)CCCC3)ccc2S1(=O)=O	inactive: 0.985
Cc1noc(C)c1S(=O)(=O)N(C)C[C@@H]1OCc2cnnn2CCCC(=O)N([C@@H](C)CO)C[C@H]1C	inactive: 1.01
CC(C)NC(=O)N(C)C[C@@H]1Oc2cc(C#Cc3ccccn3)ccc2S(=O)(=O)N([C@H](C)CO)C[C@@H]1C	inactive: 0.991
CC(=O)OC1(C(C)=O)CCC2C3C=C(Cl)C4=CC(=O)CCC4(C)C3CCC21C (stereo not drawn)	inactive: 1.04
Cc1noc(C)c1NC(=O)N(C)C[C@H]1Oc2ncc(C#CCN(C)C)cc2C(=O)N([C@@H](C)CO)C[C@H]1C	inactive: 1.02
C[C@H]1CN([C@@H](C)CO)C(=O)Cc2cc(NC(=O)Nc3cccc4ccccc34)ccc2O[C@H]1CN(C)Cc1ccc(C(F)(F)F)cc1	inactive: 1.03
C[C@@H]1CN([C@H](C)CO)C(=O)Cc2cc(NS(=O)(=O)c3cn(C)cn3)ccc2O[C@H]1CN(C)S(=O)(=O)c1ccccc1	inactive: 1.01
C[C@@H]1CN([C@H](C)CO)C(=O)c2cc(-c3cccc(C(=O)N(C)C)c3)cnc2O[C@H]1CN(C)S(=O)(=O)c1ccc(F)cc1	inactive: 1
CCOc1ccc(NC2=NC(=O)/C(=C/c3cc(Br)c(OCc4ccccc4)c(OC)c3)S2)cc1	inactive: 1.07
C[C@H](CO)N1C[C@H](C)[C@H](CN(C)S(=O)(=O)c2ccc(F)cc2)Oc2ccc(N(C)C)cc2CC1=O	inactive: 0.999
COc1ccc(S(=O)(=O)N(C)C[C@@H]2Oc3c(cccc3N(C)C)C(=O)N([C@@H](C)CO)C[C@H]2C)cc1	inactive: 0.985
CNC[C@H]1Oc2ccc(NC(=O)Cn3cnnn3)cc2C(=O)N([C@H](C)CO)C[C@@H]1C	inactive: 0.898
C[C@@H]1CN([C@@H](C)CO)C(=O)c2cccc(NS(=O)(=O)c3cn(C)cn3)c2O[C@H]1CN(C)Cc1ccc2c(c1)OCO2	inactive: 0.963
O=C(CCCCCCC(=O)Nc1ccc([C@H]2O[C@@H](CSc3nc(-c4ccccc4)c(-c4ccccc4)o3)C[C@H](c3ccc([N+](=O)[O-])cc3)O2)cc1)NO	inactive: 1.02
Cc1ncc(C[n+]2csc(CCO)c2C)c(N)n1.Cl.[Cl-]	inactive: 1.1
COc1cc(C(=O)N2CCC3(CC2)CC(=O)c2cc(-c4cncc(C(=O)O)c4)ccc2O3)cc2c1c(C)cn2C1CC1	inactive: 1.01
